Assay results from PMC10668032.
The list shows a part of the results. At the low end of the ranking the order means little.

target: SIX1-Q177R homeodomain (UniProt Q15475); assay: universal protein binding microarray; details: Universal all-10-mer PBM (8x60K, AMADID 030236), 300 nM GST-tagged protein, Alexa Fluor 488 anti-GST; buffer, salt, pH and temperature not stated; high values mean tight binding; most listed sequences are background and not binding sites; double strand, one strand shown

Row | Sequence | binding signal [E-score]
1 | CAAGTGAG | -0.0897
2 | GCTTGGCC | -0.18
3 | ATTGACAA | -0.193
4 | AAGCGCTA | -0.144
5 | ACGATTCC | 0.124
6 | CACCTAGA | 0.276
7 | AGACGCTC | -0.19
8 | CCTCAGTC | -0.274
9 | AAATAACA | 0.143
10 | CCGAATAA | 0.0822
11 | ATAGACTG | -0.247
12 | CGGCTCGA | 0.0325
13 | ATGGAGCA | -0.0865
14 | AACTAAAT | -0.0976
15 | GACCTCGA | -0.0536
16 | ATACTGGC | -0.032
17 | GTTTACAA | -0.028
18 | AATCGGGA | -0.0709
19 | CATAGATG | -0.115
20 | ACACGACT | 0.411
21 | ACTTCGAA | -0.263
22 | GGCCCCCC | -0.103
23 | ATGGCAAC | -0.199
24 | CTTTAGGA | -0.213
25 | GCGCCACA | -0.0245

Row | Sequence | binding signal [E-score]
26 | CCTCAGCG | 0.00288
27 | GAGGTCCC | -0.293
28 | GGCCTTAC | -0.213
29 | ACCGCGTC | 0.0164
30 | CCCGAGTA | 0.167
31 | CGTGTTGC | 0.333
32 | AAACGGCA | 0.0627
33 | GCGCTAGA | -0.00604
34 | GTCCGATA | -0.00404
35 | AAGGTACA | 0.122
36 | CAGGTTAC | -0.0373
37 | GTCCTACA | 0.243
38 | GACATCTC | -0.0724
39 | ATAGACAG | -0.187
40 | GAACCCGA | 0.112
41 | AAACACAG | 0.0607
42 | ACAGTGAA | 0.0269
43 | ATCGTGGG | -0.124
44 | CGGGGGCA | 0.0198
45 | CTTCCACA | -0.124
46 | ATGGTATG | -0.0622
47 | AGGACGTG | 0.0793
48 | GTCCCCTA | 0.0845
49 | CACGCTAA | 0.082
50 | ACCATCAA | -0.102

Row | Sequence | binding signal [E-score]
51 | ATTGCACA | -0.112
52 | AAAGGAAT | -0.245
53 | AACGCTAC | -0.0414
54 | AGATACTG | -0.0928
55 | AATATGAG | -0.213
56 | AGAAGCGG | -0.00419
57 | GAGCATAC | -0.0188
58 | CTAATAAA | -0.166
59 | GGAGATCC | 0.00281
60 | TCTACGCA | -0.237
61 | GGGTAAAA | 0.0874
62 | CAGACGCA | -0.031
63 | GCCTACAC | 0.442
64 | CTGTGGAC | 0.0386
65 | AGGTAGCC | -0.0452
66 | AATACCGC | 0.0215
67 | CTGCTGAC | 0.0561
68 | AGTAGCGA | 0.0415
69 | ACCTGTAT | 0.17
70 | AGTAGTGG | -0.033
71 | CGTCAAAA | -0.0376
72 | CTTGAAGA | -0.222
73 | CGCCGTGA | -0.0719
74 | CTGCCGTC | -0.0744
75 | GAAATCGC | -0.228

Row | Sequence | binding signal [E-score]
76 | CTGATGTC | -0.319
77 | AAAGTTGG | -0.105
78 | ATATTAGA | -0.00137
79 | CACGACAC | 0.448
80 | GCGGGTTA | 0.21
81 | GATTATCC | 0.0323
82 | TGGTCGAA | -0.0184
83 | GCCGAATA | -0.101
84 | AGGCTATA | -0.115
85 | GATCGTCA | -0.0104
86 | ATGCTCGC | -0.233
87 | AGTTAGCC | -0.224
88 | ACAGGACA | 0.0498
89 | AAACAAAT | -0.146
90 | CAAAGGTA | 0.0551
91 | AAATTTGG | -0.286
92 | AAGCCCAG | -0.22
93 | AATGACGC | 0.125
94 | CGTGTAGA | 0.379
95 | GATGACTA | -0.148
96 | ACAGGGCA | -0.0909
97 | CGCCGCAC | 0.151
98 | ATGGTCTC | -0.157
99 | CCGAACAG | -0.0745
100 | AAGGCCAG | -0.0629

Row | Sequence | binding signal [E-score]
101 | TGTTGGAA | 0.091
102 | CCGCTTTA | 0.139
103 | GTCGGTAA | -0.0896
104 | AATCAAGC | -0.109
105 | CCTTGTCG | -0.18
106 | GAGTCAGC | 0.0775
107 | CCCTGGAG | 0.00733
108 | ACCACGGT | -0.0281
109 | AGTAAGAC | -0.067
110 | ACTTATCC | -0.00901
111 | ACGTAGCA | 0.00936
112 | TCATACGA | -0.106
113 | CATGGTTA | -0.105
114 | ACTGCTGC | -0.0463
115 | TTGCGCAA | -0.224
116 | AGGCTCCG | -0.151
117 | ATTCGCAA | 0.162
118 | AACTGGCG | -0.023
119 | ACCTGCCT | 0.198
120 | GATCGCCA | -0.0725
121 | ACACATTG | 0.13
122 | AGATTACT | -0.172
123 | AGGTGGCC | -0.165
124 | CCAGGATC | 0.193
125 | AAGGGTGG | 0.139

Row | Sequence | binding signal [E-score]
126 | CATGCGCG | -0.0488
127 | AATGGAAA | 0.0898
128 | ACGTACGC | -0.0289
129 | AAAGGGAC | -0.133
130 | GCCAATCA | -0.232
131 | CATACCAC | 0.0311
132 | AAAGTAGG | -0.156
133 | CTAATTAA | -0.012
134 | ACTCCGTC | 0.0603
135 | GATAACGC | 0.0566
136 | CATTCGCG | 0.00596
137 | CTCTAAGC | -0.187
138 | AAGGGCCT | -0.0968
139 | CTGTTACA | 0.238
140 | AATAGCGG | -0.156
141 | CCAGGCGG | 0.107
142 | ACTGTCTG | -0.135
143 | ACTAACCC | 0.0819
144 | CCAGTCAC | 0.122
145 | TCCCCTCA | 0.144
146 | ACCGTACT | 0.224
147 | ATCGCTAA | 0.0811
148 | TAGTTATA | -0.105
149 | ATGTTTAG | -0.132
150 | AAGCGAGA | -0.128

Row | Sequence | binding signal [E-score]
151 | AAATGTGC | 0.02
152 | CTCGGATC | 0.0314
153 | TAGTCCCA | -0.147
154 | ACTCACCT | -0.0467
155 | AGTCCAGG | 0.0768
156 | ATCTACTA | -0.107
157 | ATGATCAA | -0.245
158 | ACAATCCG | -0.172
159 | AGGGCTTC | -0.24
160 | CTGGATGA | -0.0322
161 | CTGCCTGC | 0.0272
162 | ATAAGTGC | -0.092
163 | GAGGGCGA | -0.0804
164 | TCTATGCA | 0.0525
165 | ATGATGGA | -0.158
166 | ACGTCTGA | -0.00618
167 | AGCAGAAT | -0.16
168 | TCCTAGGA | 0.22
169 | CTAAAAAG | -0.261
170 | TCATGTAA | -0.0879
171 | GCTCGTAA | -0.04
172 | AGAATGAA | -0.211
